Out of some 350,000 compounds screened, about 9,900 (2.8%) were called active. This list was built around the results that the source calls inconclusive (neither active nor inactive); the mix of calls is not that of the screen. Calls follow the shape of the dose curve; as a rule, active = well fitted activation curve with a large enough effect; inconclusive = small, poorly fitted or top-dose-only effect; inactive = no such curve, though single readings can be large or run the other way. No potency is given beside an inconclusive call; the fits are too rough.
Assay: A quantitative high throughput screen for small molecules that induce DNA re-replication in MCF 10a normal breast cells. Also: nearly all actives have a fitted effect of over 50% in size. As to activity, positive = re-replication: % of control where 0% means no effect.
Settings: MCF 10A DNA re-replication, Hoechst nuclear intensity, 48 h; activity, positive = re-replication: at 46.1 µM (top of the series)
Potency is read from the fitted curve at half-maximal effect; tags tell the direction and shape of the fitted curve.

| SMILES | Potency | activity, positive = re-replication |
| --- | --- | --- |
| Cn1nc(C(=O)Nc2ccccc2N2CCCC2)c2ccccc2c1=O | inconclusive [activator, single point] | – |
| CC(NC(=O)/C(=C/c1ccc2c(c1)OCO2)NC(=O)c1cccc([N+](=O)[O-])c1)C(=O)O (stereo not given) | inconclusive [activator, full curve] | – |
| Cc1cc(-c2ccccc2)c2c3c(c(-c4ccccc4)n2n1)c(=O)n(C)c(=O)n3C | – | inactive: -6.11% |
| COc1ccc(CCC(=O)N2CCN(S(=O)(=O)c3cccs3)CC2)cc1 | inconclusive [activator, partial curve, poor fit] | – |
| CCN(CC)c1ccc(NC(=O)c2cc(Cl)ccc2OC)cc1 | inconclusive [activator, single point] | – |
| COc1ccccc1CNc1cc(CSc2ccc(Cl)cc2)nc(C)n1 | inconclusive [activator, single point] | – |
| O=c1[nH]nc(SCCS(=O)(=O)c2ccc(F)cc2)n1-c1ccc2c(c1)OCCO2 | inconclusive [activator, single point] | – |
| CC(/C=N/NC(=O)c1cc(-c2cccnc2)nc2c1c(C)nn2-c1ccccc1)=C\c1ccccc1 | – | inactive: -6.3% |
| COc1ccccc1-c1cn[nH]c1-c1ccc(O)cc1O | – | inactive: 2.96% |
| O=C(Nc1ccccc1N1CCOCC1)c1ccc(F)c(S(=O)(=O)N2CCOCC2)c1 | inconclusive [activator, partial curve, poor fit] | – |
| O=C(O)CNC(=O)c1ccccc1I | – | inactive: -1.77% |
| Cc1ccsc1C(=O)NC1CCCN(Cc2ccc(Cl)cc2)C1 (stereo not given) | inconclusive [activator, partial curve, poor fit] | – |
| Cc1nc(N)nc(N/N=C/c2ccccc2)n1 | inconclusive [activator, single point] | – |
| O=C(Nc1ccc2nn(-c3ccccc3)nc2c1)c1ccc(Br)o1 | inconclusive [activator, full curve, poor fit] | – |
| C=Cn1cc[n+](CC(=O)c2ccc(Cl)c(Cl)c2)c1 | – | inactive: -0.351% |
| Nc1c(-c2n[nH]c(=S)n2-c2ccc(Cl)cc2Cl)cnn1-c1ccccc1 | inconclusive [activator, partial curve, poor fit] | – |
| COc1ccc(S(=O)(=O)n2nc(-c3ccc(Cl)cc3)cc2N)cc1 | inconclusive [activator, single point] | – |
| O=C(c1cc(F)ccc1F)N1CCC(N2CCC(C(=O)N3CCCC3)CC2)CC1 | inconclusive [activator, single point] | – |
| CS(=O)(=O)c1ccc(C(=O)OCC(=O)NCc2cccs2)cc1[N+](=O)[O-] | active: 4.11 µM | – |
| O=c1oc(-c2cccs2)nc2sc3c(c12)CCCC3 | active: 18.4 µM | – |
| CC1CC(C)CN(C(=O)c2ccc3c(c2)N(Cc2ccccc2)CCS3)C1 (stereo not given) | inconclusive [activator, single point] | – |
| Cc1cc2c3c(c1C)C1(C(=O)N3C(C)(C)CC2C)C(C#N)=C(N)OC2=C1C(=O)CC(C)(C)C2 (stereo not given) | inconclusive [activator, partial curve, poor fit] | – |
| COc1ccc(-c2csc3ncnc(N4CCN(c5cccc(OC)c5)CC4)c23)cc1 | – | inactive: 2.95% |

| SMILES | Potency | activity, positive = re-replication |
| --- | --- | --- |
| Cc1cccc(Cn2cnc3c(NS(C)(=O)=O)c(C)c(C)cc32)c1 | – | inactive: 0.195% |
| O=c1ccc(-c2ccccc2)no1 | – | inactive: -1.46% |
| O=C(Nc1ccc(OCC(F)(F)C(F)F)c(C(F)(F)F)c1)c1ccc(Cl)cc1 | active: 23.1 µM | – |
| Cc1ccc(CCNC(=O)C2CCC(=O)N(CC3CCCCC3)C2)cc1 (stereo not given) | – | inactive: -0.224% |
| CS(=O)(=O)N1CCC(C(=O)Nc2ccccc2)CC1 | – | inactive: 11.8% |
| N#C/C(C(=O)NCc1ccco1)=C1/SC(Cc2ccc(F)cc2)C(=O)N1c1ccccc1 (stereo not given) | – | inactive: 6.53% |
| CCOC(=O)c1ccc(NS(=O)(=O)c2ccc(SC)cc2)cc1 | active: 23.1 µM | – |
| COc1ccc2cc3cc(C(=O)N4CCN(Cc5ccc6c(c5)OCO6)CC4)oc3nc2c1 | inconclusive [activator, single point] | – |
| COCC(=O)N1CCN(c2cccc(C(F)(F)F)c2)CC1 | – | inactive: 6.44% |
| Cc1ccc2c(c1)C(=O)C(=O)N2CCCOc1ccccc1 | inconclusive [activator, single point] | – |
| COc1ccccc1OCCn1c(=O)n(C)c2ccccc21 | – | inactive: -0.491% |
| CC1Cc2ccccc2N1C(=O)CSc1nnc2n1C(C)(C)Cc1ccccc1-2 (stereo not given) | inconclusive [activator, partial curve, poor fit] | – |
| CC(=O)N(c1ccccc1)C(C)c1nc(C#N)c(C#N)nc1C (stereo not given) | inconclusive [activator, single point] | – |
| Cc1cc(C)cc(NC(=O)Cc2ccc(-n3cccc3)cc2)c1 | inconclusive [activator, partial curve, poor fit] | – |
| Cc1onc(-c2ccccc2)c1C(=O)N=C(N)c1ccc(C(F)(F)F)cc1 | inconclusive [activator, full curve, poor fit] | – |
| COC1C=CO[C@@]2(C)Oc3c(C)c(O)c4c(O)c(c(C=NN5CCN(C)CC5)c(O)c4c3C2=O)NC(=O)/C(C)=C\C=CC(C)C(O)[C@@H](C)C(O)C(C)[C@H](OC(C)=O)C1C (stereo not given in full) | – | inactive: 11.2% |
| Cc1ccccc1N1C(=O)c2cc(S(N)(=O)=O)c(Cl)cc2NC1C (stereo not given) | – | inactive: -16.3% |
| CC(=O)c1cccc(N(CC(=O)Nc2ccc(S(=O)(=O)N3CCOCC3)cc2)S(C)(=O)=O)c1 | – | inactive: -1.81% |
| CCN(CC)CCNC(=O)CCCNC(=O)Cn1cnc2sc(C)c(C)c2c1=O | inconclusive [activator, single point] | – |
| CC1=C(/C=C/C(C)=N\NC(=O)c2ccncc2)C(C)(C)CCC1 | inconclusive [activator, partial curve] | – |
| CCCCC1(CC)COC(c2ccccc2)OC1 (stereo not given) | inconclusive [activator, single point] | – |
| Cc1ccc(CNC(=O)CSc2nc3c(sc4ccccc43)c(=O)n2CCCN2CCCC2)cc1 | inconclusive [activator, partial curve, poor fit] | – |

Source: PubChem BioAssay AID624296 (National Center for Advancing Translational Sciences (NCATS), 2012)
